In ChEMBL document CHEMBL4888484, “Replenishing the malaria drug discovery pipeline: Screening and hit evaluation of the MMV Hit Generation Library 1 (HGL1) against asexual blood stage Plasmodium falciparum ,using a nano luciferase reporter read-out” (2022):
Among all 150,000 compounds or so, about 540 (0.36%) showed an effect of 50% or more. Some of the results follow.

System: Plasmodium falciparum
Assay: Primary screen in NF54 nanoGlo assay, in single point, at 2uM, 72h; a lower Z score goes with more inhibition
Format: functional, Erythrocyte
Conditions: timepoint 72 hour

Row | SMILES | % Inhibition | Z score
1 | CCc1nc(-c2cc(S(=O)(=O)NC3CCCC3)c(C)s2)no1 | -11% | 1.09
2 | COc1ccc(NC(=O)CC(=O)N2Cc3ccccc3C2)c(OC)c1 | -1% | 0.16
3 | COc1cc(C(=O)NCCCN2CCCC2=O)on1 | 10% | -1.58
4 | CC(C)C(=O)N1CCC[C@H]1C(=O)NC1CCCCC1 | -4% | 0.58
5 | CNC(=O)c1cccnc1NCC1(O)CCCCC1 | -14% | 1.85
6 | CCOC(CCNC(=O)N1CC2CCC1C2)C(C)C (configuration not stated) | 4% | -0.53
7 | O=c1ccc(N2CCN(S(=O)(=O)c3ccccc3F)CC2)nn1-c1ccc(Cl)cc1 | 26% | -3.07
8 | Cc1cc(O)nc2ccc(NC(=O)c3cccc(F)c3)cc12 | 5% | -0.52
9 | C[C@H]1CC(=O)N(CCOc2ccc(Cl)cc2)C1=O | 4% | -0.51
10 | O=C(NC[C@H](OCCO)c1cccs1)c1cccs1 | -22% | 3.21
11 | CCCNC(=O)N1CCC(F)(C(=O)N2CCOCC2)CC1 | 9% | -1.14
12 | COCc1ccc(C(=O)N2Cc3c(-c4ccncc4)nc(N)nc3[C@@H]2C)o1 | 0% | -0.04
13 | CCCCNc1cc(N2CCN(C(=O)C(=O)N3CCOCC3)CC2)nc(N)n1 | -10% | 1.33
14 | Cc1cc(NC(=O)N2CC3(CCCC3)[C@@H]2C(C)C)nn1C | 32% | -3.58
15 | CC(=O)Nc1ccc(-c2n[nH]c(N)c2Cl)cc1 | -8% | 1.33
16 | c1ccc(CC2CCN(Cc3cscn3)CC2)cc1 | 4% | -0.73
17 | COc1ccc(-c2ccc(=O)n(-c3c(C)noc3C)n2)cc1S(=O)(=O)Nc1ccc(F)c(F)c1 | 17% | -1.95
18 | CCS(=O)(=O)NC[C@H](C)N1CC(Oc2cccc(Cl)c2)C1 | 2% | -0.26
19 | CN1CC[C@@]2(CCCN(C(=O)c3cccc(-c4ccc(O)cc4)c3)C2)C1 | -7% | 0.99
20 | COc1ncc(-c2cc(-n3cccn3)ncn2)c(OC)n1 | -11% | 1.45
21 | O=C(O)C1CCCC(C(=O)Nc2ccsc2)C1 (configuration not stated) | -9% | 0.88
22 | Cc1c(C(=O)NCCC(C)C)c(C(F)(F)F)nn1C(C)C | -11% | 1.67

Row | SMILES | % Inhibition | Z score
23 | Cc1nc(CC(N)=NOCc2ccc(C(N)=O)cc2)cs1 | -12% | 1.26
24 | O=C1CN(c2ncccc2Cl)CN1CC(F)(F)F | 10% | -1.89
25 | CC(c1ccccc1)n1cc(NC(=O)N2CC[C@@H]3OCC[C@@H]3C2)cn1 (some centres not stated) | 8% | -1.01
26 | C=CCCS(=O)(=O)NC[C@H](O)c1ccccc1C | 2% | -0.27
27 | Cc1ccc(-c2csc(-c3cccn3CC(=O)NCCN3CCOCC3)n2)cc1 | -6% | 0.81
28 | Fc1cccc(F)c1[C@H]1CCN(c2ncnc3[nH]ccc23)C1 | 16% | -2.06
29 | N#Cc1ccc(N2CC3CCC(O)CC3C2)nc1N1CC2CCC(O)CC2C1 (configuration not stated) | -4% | 0.67
30 | Cc1c(-c2ccc(O)cc2)nc(N)c(C#N)c1-c1cnc(NC(C)C)nc1 | 6% | -0.8
31 | Cc1ccc(-c2cc(C(F)(F)F)on2)cc1S(=O)(=O)NC[C@H](C)c1ccccc1 | -4% | 0.66
32 | O=C(CCc1cscn1)NC[C@H](O)c1c(Cl)cccc1Cl | -3% | 0.34
33 | COc1ccc(NC(=O)N2CC[C@H](CC(=O)NCc3ccccc3)C2)cc1OC | 37% | -5.41
34 | COc1nccnc1N(C)CC[C@H]1CCCCO1 | -8% | 1.45
35 | CC(C)N1C[C@@H]2Oc3ccc(C(F)(F)F)cc3C(=O)N(C)[C@@H]2C1 | -8% | 1.16
36 | CC1(C)[C@@H](NC(=O)Nc2nnc(C3CCOCC3)s2)[C@@H]1c1ccccc1 | -15% | 1.98
37 | Cn1nc(-c2cccc(C(=O)N[C@H]3CCNC3=O)c2)nc1N1CCCCC1 | -8% | 1.39
38 | CCC(F)(F)C(C)(C)CNC1CCCC(C(N)=O)C1 (configuration not stated) | -2% | 0.32
39 | COc1cc(Cl)c(NC(=O)N2CC3CC2CS3(=O)=O)cc1C (configuration not stated) | -5% | 0.99
40 | COc1cccc([C@@H](C)NC(=O)N(C)CC2(N3CCOCC3)CCCCC2)c1 | -5% | 0.68
41 | O=C(O)CCCC(=O)Nc1ccc(Br)c(Br)c1 | -23% | 2.73
42 | O=C(c1ccccc1)N1CCN(Cc2nc(C3CCCC3)no2)CC1 | -17% | 2.57
43 | Cn1ccnc1-c1ccccc1C(=O)Nc1ccc([C@@H](O)c2cccs2)cc1 | 10% | -1.23
44 | Cc1nc(CN2CC[C@@]23CCCN(C(=O)OC(C)(C)C)C3)oc1C | 0% | -0.08

Row | SMILES | % Inhibition | Z score
45 | O=C(NC1C2CCC(C2)C1CO)C1CC2CCC1C2 (configuration not stated) | -4% | 0.61
46 | CC(C)Oc1cc(N[C@H]2CCC[C@@H]2N(C)C)nc(N)n1 | -11% | 1.37
47 | CC(C)(O)C#Cc1cccc(C(=O)N2CCC3(CCCC3)C2)c1 | -16% | 2.36
48 | COC(=O)c1ccc([C@H]2CC(=O)Nc3ncn(-c4cccc(C(F)(F)F)c4)c32)cc1 | 30% | -3.84
49 | CCOc1ccc(-c2ccnc3c(C(=O)NCc4ccc5c(c4)OCO5)cnn23)cc1 | 45% | -5.14
50 | Cc1cc(S(=O)(=O)N2CCC[C@H](n3ccnn3)C2)sc1C | -12% | 1.87
51 | Cc1nnc([C@H](C)NC2CCC3(CC2)CC3(F)F)[nH]1 (some centres not stated) | 4% | -0.59
52 | CCc1ccc(C2=C(C)C(N3CCC(C(=O)NC)CC3)=NS2(=O)=O)cc1 | -2% | 0.29
53 | COc1ccc(S(=O)(=O)N2CCOCC2)cc1NC(c1ccccc1)c1ccccc1 | -4% | 0.72
54 | CCN(CC)C(=O)CN1C(=O)COc2ccc(C(=O)N3CCCCC3)cc21 | -9% | 1.18
55 | CCn1cc(C)c(C(=O)O)c1CC(=O)NCc1ccc(OC)cc1 | -9% | 1.14
56 | O=C(Nc1ccc(Cl)cc1Cl)[C@@H]1CCCN1Cc1ncc(-c2ccccc2)o1 | 7% | -1.39
57 | CC(C)N1C(=O)[C@H](C)N(C(=O)NCc2ccc(N(C)C)cc2)c2cccnc21 | 4% | -0.7
58 | CN1CCNC[C@H]1c1nc(C2CC2)no1 | -11% | 2.19
59 | Cn1cc(Cl)cc1C(=O)N1C[C@H](O)[C@@H](N2CCCC2)C1 | -11% | 2.21
60 | CCCCN(C)S(=O)(=O)c1cc(-c2nnc(C)o2)co1 | -9% | 1.3
61 | COCCN1C[C@]2(CCCN(C(=O)c3ccc(C#N)nc3)C2)CCC1=O | -12% | 2.17
62 | CCCc1ccc(C(=O)N2CC[C@H](N3CCN(C)CC3)[C@H](CCC(=O)O)C2)cc1 | -17% | 1.68
63 | Cc1cc(CN(C)Cc2nonc2C)ccn1 | -5% | 0.88
64 | CC(C)c1ccc(OC2CCN([C@H]3CCCCN(CC(=O)O)C3=O)CC2)cc1 | 3% | -0.66
65 | O=S(=O)(N[C@@H](c1ccc(F)cc1)c1ccccc1Cl)c1cccs1 | -9% | 1.71
66 | Cc1nn(C)c(C)c1S(=O)(=O)N[C@@H](C)C(C)(C)C | -12% | 1.1

Row | SMILES | % Inhibition | Z score
67 | O=C1OCc2ccc(S(=O)(=O)N3CCCC4(CCCCC4)C3)cc21 | -7% | 0.94
68 | CN(CCC(=O)O)c1nc2ccccc2nc1N1CCOCC1 | 1% | -0.15
69 | O=C(COc1ccc2ccccc2c1)NC1CCN(C2CCCCC2O)CC1 (configuration not stated) | -8% | 0.98
70 | N#Cc1ccc(-c2nc(-c3cccc(-c4csc(C5CC5)n4)c3)no2)c(F)c1 | -9% | 0.99
71 | Cc1ccccc1OCC(=O)NCc1ccc(C)n1C | -11% | 1.7
72 | O=C(N1CC(CO)C1)N(c1ccccc1)c1ccccc1 | -3% | 0.41
73 | Cc1cccc(CN(CC(=O)N2CCNCC2)C(=O)c2cccc(N(C)C)c2)c1 | 22% | -2.79
74 | O=C(c1ccc2nc(-c3ccc(F)cc3)cn2c1)N1CCN(CCO)CC1 | -7% | 1.31
75 | COc1ncc(NS(=O)(=O)Cc2cc(F)cc(F)c2)c(OC)n1 | -7% | 1
76 | Cc1noc(C)c1COc1nc(C(C)C)no1 | -4% | 0.55
77 | COc1cc(-c2nc(-c3ccc(Br)cc3)c(-c3ccccc3)[nH]2)cc2c1OCO2 | -5% | 0.95
78 | O=C(Nc1ccc(Cl)cc1F)N[C@H]1CCN(c2cc(N3CCOCC3)cnn2)C1 | -4% | 0.53
79 | O=C1NCCOCCCN(C(=O)CC2CCCCC2)[C@H]2CCCC[C@@H]12 | -13% | 2.2
80 | Cc1ccn(Cc2nc(N)nc(N(C)C)n2)c(=O)c1C#N | 33% | -4.44
81 | CN(C)C(=O)CCN1CCC[C@H]1c1nc(-c2ccccc2)c[nH]1 | -6% | 0.8
82 | Cc1nc(NCc2cc(C)oc2C)n(C)n1 | -6% | 0.92
83 | CC(C)c1ccc(NC(=O)CCC(=O)N2CCc3ccccc3C2)cc1 | 36% | -0.83
84 | CC1(C)CNc2ccc(Br)cc21 | 14% | -1.44
85 | CCCN(Cc1nnc(-c2ccccc2)o1)Cc1nccn1C | -1% | 0.17
86 | C[C@H](NCc1cc(Br)c2c(c1)OCO2)c1nccn1C | -11% | 1.73
